The text below walks through data of the RNAGym collection of RNA variant scans (doi:10.7554/elife.90254).

Read counts are not given, so values of variants with three or more changes are uncertain.

B1: LINE1-full (parent)
chain: UACGUAGGUGGUUUUCCCCUGAUAGUGCUAAGGGGGCCUGGAAGUUUGGACUGGGCAGAGCUCAACACAGCGUGGCAAAGUGGCUGUGGCUAGACUGCCUCUCUGGAUUCCUCGUCACUCAGCAGGGCAUCUCUGAGAGAAAUGCC

Variants of B1 are the subject of the series. The series can be described thus: self-cleavage, relative activity (ratio to wild type); higher = more cleavage; in vitro, sequencing; the parent is a self-cleaving ribozyme.
Take UACGUAGGUGGUAUUCCCCUGAUAGUGCUAAGGGGGCCUGGAAGUUUGGACUGGGCAGAGCUCAACGCAGCGUGGCAAAGUGGCUGUGGCUAGACUGCCUCUCUGGAUUCCUCGCCACUCAGCAGGGCAUCUCUGAGGGAAAUGCC: the self-cleavage stood at 1.48.

Regarding UACGUAGGUGGUAUUCCCCUGAUAGUGCAAAGGGGGCCUGGAAGUUUGGACUGGGCAGAGCUCAACACAGCGUGGCAAAGUGGCUGUGGCUAGACUGCCUCUCUGGAUUCCUCGUCACUCAGCAGGGCAUCUCUGAGAGGAAAGCC, the self-cleavage turned out to be 0.56. On to UACGUAGGUGGUAUUUCCCUGAUAGUGCUAAGGGGGCCUGGAAGUUUGGACUGGGCAGAGCUCAACACAGCGUGGCAAGGUGGCUGAGGCUAGACUGCCUCUCUGGAUUCCUCGUCACUCAGCAGGGCAUCUCUGAGAGAAAUGCC, for which the self-cleavage turned out to be 0.04. As to UACGUAGGUGGUAUUCCCCAGAUAGUGCUAAGGGAGCCUGGAAGUUUGGACUGGGCAGAGCUCAACACAGCGUGGCAAAGUGGCUGUGGCUAGACUGCCCCUCUGGAUUUCUCGUCACUCAGCAGGGCAUCUCUGAGAGAAAUGCC, the self-cleavage amounted to 1.14.

Consider UACGUAGGUGGUACUCCCCUGAUAGUGCUAUGGGGGCCUGGAAGUUUAGACUGGGCAGAGCUCAACACAGCGUGGCAAAGUGGCUGUGGCUAGACCGCCUCUCAGGAUUCCUCGUCACUCAGCAGGGCAUCUCUGAGAGAAAUGCC, for which the self-cleavage came to 0.07.

For UACGUAGGUGGUAUUCCCCUGAUAGUGCUAAGGGGGCCUGGAAGUUUGGACUGGGCAGAGCUCAACACAGCGUGGCAAAGUGGCUGUGGCUAGACUGCCUCUCUGGAUUCCUCGUCACUCAGCGGGGCGUCUCUGAGAGAAAUACC, the self-cleavage amounted to 1.41. With UACGUAGGUGGUAUUCCCCUGAUAGUGCUAAGGGGGCCUGGAAGUUUGGACUGGGCAGAGCUCAACACAGCGUGGCAAAGUGGCUGUGGCUAGGCUGCCUCUCAGGAUUCCUCGUCACUCAGCAGGGCAUCUCUGAGAGAAAUGCC the figure was 0.43; with UACGUAGGUGGUAUUCCCCUGAUAGUGCUAAGGGGGCCUGGAAGUUUGGACUGGGCAGAGCUCAACACAGCGUGGCAAGGUGGCUGUGGCUAGACUGCCUCUCUGGAUUCCUCGUCACUCAGCAGGGCAACUCUGAGAGAAAUGCC, 0.61; with UACGUAGGUGGUAUUCCCCUGAUAGUGCUAAGGGGGCCUGGAAGUUUGGACUGGGCAGAGCUCAUCACAGCGUGGCAAAGUGGCUGUGUCUAGACUGCCUCUCUGGAUUCCUCGUCACUCAGCAGGGCAUCUCUGAGAGAAAUGCC, 0.02. For UACGUAGGUGGUAUUCCUCUGGUAGUGCUAAGGGGGCCUGGAAGUUUGGACUGGGCAGAGCUCAACACAGCGUGGCAAAGUGGCUGUGGCUAGACUGCCUCUCUGGAUUCCUCGUCACUCAGCAGGGCAUGUCUGAGAGAAAUGCC, the self-cleavage is 0.24. Turning to UACGUAGGUGGUAUUCCCCUGAUAGUGCUAAGGGGGCCAGGAAGUAUGGACUGGGCAGAGCUCAACACAGCGUGGCAAAGUGGCUGUGGCUAGACUGCCUCUCUGGAUUCCUCGUCACCCAGCAGGGCAUCUCUGAGAGGAAUGCC, the self-cleavage came out at 1.8. On to UACGUAGGUGGUAUUCCCCUGAUAGUGCUAAGGGGACCUGGAAGUUUGGACUGGGCAGAGCUCAACACAGCGUGGCAAAGUGGCCGUGGCUAGACUGCCUCUCUGGAUUCCUCGUCACUCAGCAGGGCAUCUCUGAGAGAAGUGCC, for which the self-cleavage was found to be 0.14.

As for UACGUAGGUGGUAUUCCCCUGACAGUGCUAAGGGGGCCUGGAAGUUUGGACUGGGCAGAGCUCAACACAGCGUGGCAGAGUGGCUGUGGCUAGGCUGCCUCUCUGGAUUCCUCGUCACUCAGCAGGGCAUCUCUGGGAGAAAUGCC, the self-cleavage was 0. For the variant UACGUAGGUGGUAUUCCCCUGAUAGUGCUAAGGGGGCCUGGAAGUUUGGACUGGGCAGAGCUCAACACAGCGUGGCAGAGUGGCUGUGGCUAGACUGCCUCUCUGGAUUCCUCGUCACUCAGCAGGGCAUCACUGAGAGAAAUGCC, the self-cleavage worked out at 1.57. To UACGUAGGUGGUAUUCCCCUGAUAGUGCUAAGGGGGCCUGGAAGUUUGGACUGGGCAGAGCUCAACACAGCGUGGCAAAGUGGCUGUGGCUAGACUGCCUCUCUGGUUUCCUCGUCACUCAGCAGGGCACCCCUGAGAGAAAUGCC belongs 1.34; to UACGUAGGUGGUAAUCCCCUGAUAGUGCCAAGGGGGCCUGGAAGUUUGGACUGGGCUGAGCUCAACACAGCGUGGCAAAGUGGCUGUGGCUAGACAGCCUCUCUGGAUUCCUCGUCACACAGCAGGGCAUCUCCGAGAGAAAUGCC, 1.06; to UACGUAGGUGGUAUUCCCCUGAUAGUGCUAAGGGGGCCUGGAAGUUUGGACUGGGCAGAGCUCAACACAGCGUGGCAAAGUGGCUGUGGCUAGACUGCCUCUCUGGGUUCCUCGUCACUCAGCAGGGCAUCUCUGAGAGAAGUGCC, 1.28.

As for UACGUAGGUGGUAUUCCCCUGAUAGUGCUAAGGGGGCCUGGAAGUUUGGACUGGGCAGAGCUCAACACAGCGUGGCAAAGUGGCUGUGGCUAGACUGCCUCUCUGGAUUCCUCGUCACUCAGCAGGGCGUCUCUGAGAGAGAUGCC, the self-cleavage is 1.15. Consider UACGUAGGUGGUAUUCCCCUGAUAGUGCUAAGGGGGCCUGGAAGUUUGGACUGGGCAGAGCUCAACGCAGCGAGGCAAAGUGGCUGUGGCUAGACUGCCUCUCUGGAUUCCUCGUCACUCGGCAGGGCAUCUCUGUGAGAAAUGCC, for which the self-cleavage amounted to 0.56.
